# Source: PubChem BioAssay AID360 (National Center for Advancing Translational Sciences (NCATS), 2006)
# Out of some 48,000 compounds screened, about 550 (1.1%) were called active. Inconclusive results (about 4%) are left out. No stated cut-off is given here; in the data, active means potency below about 15 µM; inconclusive means mostly about 16 µM to 33 µM; inactive means weaker than that. This is one part of the list.
# Biological target: Lysosomal acid glucosylceramidase (Homo sapiens) (UniProt P04062)
# Sequence of UniProt P04062 (P04062 whole entry, looked up): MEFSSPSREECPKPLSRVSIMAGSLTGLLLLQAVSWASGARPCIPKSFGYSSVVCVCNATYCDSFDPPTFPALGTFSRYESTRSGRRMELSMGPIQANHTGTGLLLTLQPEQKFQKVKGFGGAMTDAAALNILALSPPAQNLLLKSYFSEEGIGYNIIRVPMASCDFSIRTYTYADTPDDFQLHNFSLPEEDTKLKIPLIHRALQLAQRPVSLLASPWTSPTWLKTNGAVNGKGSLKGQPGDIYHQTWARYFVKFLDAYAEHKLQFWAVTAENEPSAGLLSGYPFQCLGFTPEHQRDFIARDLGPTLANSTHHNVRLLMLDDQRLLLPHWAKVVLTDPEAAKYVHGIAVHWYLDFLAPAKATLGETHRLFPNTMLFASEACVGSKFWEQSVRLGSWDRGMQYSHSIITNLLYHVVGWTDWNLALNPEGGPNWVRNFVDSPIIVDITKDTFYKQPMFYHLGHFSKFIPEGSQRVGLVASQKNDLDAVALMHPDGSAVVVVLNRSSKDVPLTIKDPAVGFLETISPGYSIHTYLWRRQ
# Test: Glucocerebrosidase;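 further: the screen sought inhibitors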
# Settings: purified enzyme, resorufin glucoside fluorescence (screen aimed at inhibitors), 20 min
# In short: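 Compounds titrated against 0.2 nM normal enzyme, 30 uM resorufin beta-D-glucopyranoside substrate, citrate/phosphate buffer with taurocholate and tween-20, pH 5.9. Reaction ran 20 min at room temperature; fluorescence (Ex 548/Em 600) gave AC50.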
# Potency means the concentration at half of the fitted maximal effect.
row,Compound,Potency
1,Cc1[nH]c2ccccc2c1-c1nc2ccccc2[nH]1,inactive: > 76.9 µM
2,O=C(NC1CCCCC1)NC1CCN(S(=O)(=O)c2ccc3c(c2)OCCO3)CC1,inactive: > 76.9 µM
3,COC(=O)c1ccc(NC(=O)COc2ccc(S(=O)(=O)NC(C)C)cc2)cc1,inactive: > 76.9 µM
4,CCOCCCNC(=O)CN(Cc1ccc(Cl)cc1)S(C)(=O)=O,inactive: > 76.9 µM
5,O=S(=O)(c1ccc(F)c2ccccc12)N1CCCCC1,inactive: > 76.9 µM
6,COc1ccc(CCNC(=O)C2CCN(c3nn4c(=O)cc(C)nc4s3)CC2)cc1OC,inactive: > 76.9 µM
7,Cc1ccc(-c2nnc(SCC(=O)O)n2N)cc1,inactive: > 76.9 µM
8,CC(C)Sc1nc2c(c(=O)n(C)c(=O)n2C)n1Cc1ccc(Cl)cc1,inactive: > 76.9 µM
9,Cc1cccc(NC(=O)C2CCCN2C(=O)OCC(C)C)c1 (centres undefined),inactive: > 76.9 µM
10,Cc1ccc2oc(-c3ccco3)nc2c1,inactive: > 76.9 µM
11,Cc1cc(=O)[nH]c(/N=C(\N)Nc2cccc3ccccc23)n1,inactive: > 76.9 µM
12,CCOCCOC(=O)C1=C(C)N(C)C(=O)NC1c1cc(Cl)c(O)c(OCC)c1 (centres undefined),inactive: > 76.9 µM
13,CC12CCC(C(=O)N3CCN(c4ccccc4)CC3)(CC1=O)C2(C)C (centres undefined),inactive: > 76.9 µM
14,COc1ncnc2c1NC(=O)CS2,inactive: > 76.9 µM
15,CCOc1ccccc1NC(=O)Cc1ccccc1OC,inactive: > 76.9 µM
16,N#CC1=C(N)OC2=C(C(=O)CCC2)C12CCC1(CC2)OCCO1,inactive: > 76.9 µM
17,O=C(Nn1cnnc1)c1csc2ccccc12,inactive: > 76.9 µM
18,Cc1ccc(N2CCN(S(=O)(=O)N(C)C)CC2)cc1Cl,inactive: > 76.9 µM
19,O=C(Nc1ccccn1)C1CCN(S(=O)(=O)c2cccs2)CC1,inactive: > 76.9 µM
20,COc1ccccc1NC(=O)COc1cccc(-n2cnnn2)c1,inactive
21,Cc1c(Cl)cccc1NC(=O)CC(C(=O)O)C1CCCO1 (centres undefined),inactive: > 76.9 µM
22,O=C(CSc1nc2ccsc2c(=O)n1-c1ccccc1)N1CCCC1,inactive: > 76.9 µM
23,COc1ccccc1N(CC(=O)Nc1ccc(F)c(F)c1)S(C)(=O)=O,inactive: > 76.9 µM

row,Compound,Potency
1,CCN(CC)c1ccc(-c2nn3c(-c4n[nH]c5c4CCC5)nnc3s2)cc1,inactive: > 76.9 µM
2,Nc1c(C(=O)N2CCCCC2)sc(=S)n1-c1ccccc1,inactive: > 76.9 µM
3,O=C(CSc1nnc(Cc2cccs2)n1C1CCCCC1)N1CCN(C(=O)c2ccco2)CC1,inactive: > 76.9 µM
4,O=C(CN1C(=O)c2ccccc2C1=O)N1CCN(c2nnc(-c3ccccc3)c3ccccc23)CC1,inactive: > 76.9 µM
5,Cn1nnc2cc(C(=O)NC3CCCCC3)ccc21,inactive: > 76.9 µM
6,Cc1ccc(Cn2nc(C)c(NC(=O)c3cc(-c4ccc5c(c4)OCO5)on3)c2C)cc1,inactive: > 76.9 µM
7,Cc1ccccc1NC(=O)c1cc(S(=O)(=O)N2CCOCC2)ccc1F,inactive: > 76.9 µM
8,C=CCN(C(=O)CNS(=O)(=O)c1ccccc1)C(C(=O)NCCOC)c1ccncc1 (centres undefined),inactive: > 76.9 µM
9,O=C(CSc1nnc(-c2cccnc2)n1-c1ccccc1)NCc1ccc2c(c1)OCO2,inactive: > 76.9 µM
10,Nc1nc(SCC(=O)c2ccc(Oc3ccccc3)cc2)n[nH]1,inactive: > 76.9 µM
11,CCN1CCN(Cc2cc(=O)oc3cc4c(cc23)CCC4)CC1,inactive
12,Cc1cc(C)n(-c2nc3c(c(=O)n(C)c(=O)n3C)n2Cc2cccc(Br)c2)n1,inactive: > 76.9 µM
13,Cc1ccc(N(CC(=O)NCc2ccco2)C(=O)CCC(=O)Nc2ccccn2)cc1C,inactive: > 76.9 µM
14,COc1ccc(C(=O)COC(=O)CCN=C2NS(=O)(=O)c3ccccc32)cc1OC,inactive: > 76.9 µM
15,COc1ccc(N2CCN(C(=O)c3ccc(S(=O)(=O)N4CCOCC4)cc3)CC2)cc1,inactive: > 76.9 µM
16,CC1=C(C#N)C(=O)NC(C)(C)C1,inactive: > 76.9 µM
17,CS(=O)(=O)Nc1ccc(C(=O)Nc2ccccc2C(=O)N2CCCC2)cc1,inactive: > 76.9 µM
18,CSc1nnc(C2CCCN2)n1C (centres undefined),inactive: > 76.9 µM
19,Cc1nc2ccccc2n1CC(=O)OCC(=O)Nc1ccc2c(c1)OCCO2,inactive: > 76.9 µM
20,O=C(COC(=O)CCC(=O)c1cccs1)Nc1ccc(S(=O)(=O)N2CCOCC2)cc1,inactive: > 76.9 µM
21,O=C(NCCCN1CCCC1=O)c1cccc(N2CCCC2=O)c1,inactive: > 76.9 µM
22,CCC(CC)C(=O)NCc1ccccc1Cl,inactive: > 76.9 µM
23,CCOc1ccc(NC(=O)CNC(=O)c2ccc(OC)c(OC)c2)cc1,inactive: > 76.9 µM

row,Compound,Potency
1,CCCCC1(C)NC(=O)N(CC(=O)Nc2ccc(S(=O)(=O)N3CCOCC3)cc2)C1=O (centres undefined),inactive: > 76.9 µM
2,Cc1cc(C)n(Cc2ccc(F)cc2)c(=O)c1C#N,inactive: > 76.9 µM
3,Cc1ccc(N2CC(C(=O)Nc3nnc(C)s3)CC2=O)cc1 (centres undefined),inactive: > 76.9 µM
4,Cc1ccccc1Cn1nc(C)c(NC(=O)c2noc3c2CC(C(C)(C)C)CC3)c1C (centres undefined),inactive: > 76.9 µM
5,COc1cccc(CC(NC(C)=O)C(=O)NC2CCN(c3nc(C)cc(C)c3C#N)CC2)c1 (centres undefined),inactive: > 76.9 µM
6,CC(C)n1nnnc1C(c1ccc(F)cc1)N1CCN(C2CCCC2)CC1 (centres undefined),inactive: > 76.9 µM
7,CCn1c(=O)c(-[n+]2ccccc2)c(O)c2ccccc21,inactive: > 76.9 µM
8,COC(=O)c1ccc2c(=O)n(Cc3ccc4c(c3)OCO4)c(SCC(=O)N3CCCC3)nc2c1,inactive: > 76.9 µM
9,CCOC(=O)Nc1oc2ccccc2c(=O)c1CN1CCOCC1,inactive: > 76.9 µM
10,COc1ccccc1NC(=O)c1nnn(CC(=O)Nc2cccc(SC)c2)c1N,inactive: > 76.9 µM
11,COc1cc(NC(=O)CN2c3cccc4cccc(c34)S2(=O)=O)cc(OC)c1OC,inactive: > 76.9 µM
12,Cc1nc2cc(-c3ccc(F)cc3)nn2c(N2CCOCC2)c1C,inactive: > 76.9 µM
13,CCOC(=O)N1CCC(NC(=O)C(NS(=O)(=O)c2ccc3c(c2)CCN3C(C)=O)C(C)C)CC1 (centres undefined),inactive: > 76.9 µM
14,C=CCn1c(-c2cccs2)nc2ccccc21,inactive: > 76.9 µM
15,COc1ccc(-c2cc3ccccc3n2CC(O)CNC(CO)(CO)CO)cc1 (centres undefined),active: 14.2 µM
16,Cc1ccc2cc(CN(C(=O)c3cccnc3)C(C)C)c(=O)[nH]c2c1,inactive: > 76.9 µM
17,CCCCNC(=O)c1ccc(NS(=O)(=O)c2ccccc2)cc1,inactive: > 76.9 µM
18,CCOC(=O)Cn1ncc(-c2ccccc2)c1N,inactive: > 76.9 µM
19,Cc1ccc2nsnc2c1NS(=O)(=O)c1c(C)ccc2nsnc12,inactive: > 76.9 µM
20,COc1ccc(CCNC(=O)CN(C2CCCCC2)S(C)(=O)=O)cc1,inactive: > 76.9 µM
21,Cc1cc(NC(=O)C23CCC(C)(C(=O)O2)C3(C)C)no1 (centres undefined),inactive: > 76.9 µM
22,CCn1c(COc2ccc(C)cc2)nnc1SCC(=O)Nc1cc(OC)ccc1OC,inactive: > 76.9 µM
23,O=C(Nc1ccc(N2CCOCC2)cc1)C1CC1,inactive: > 76.9 µM

row,Compound,Potency
1,CCOc1ccccc1C1C(C#N)=C(N)Oc2cc(C)n(Cc3ccccn3)c(=O)c21 (centres undefined),inactive: > 76.9 µM
2,Cc1ccc(-n2c(SCC(=O)N3CCCC3)nc3c(c2=O)SCC3)cc1,inactive: > 76.9 µM
3,COc1cc(C2NC(=O)NC(c3ccccc3)=C2C(C)=O)ccc1OCC(=O)O (centres undefined),inactive: > 76.9 µM
4,COc1ccc(NC(=O)C2CCCN(S(=O)(=O)c3c(C)n[nH]c3C)C2)cc1 (centres undefined),inactive: > 76.9 µM
5,Cc1nnc(SCC(=O)N(C)Cc2ccccc2)[nH]c1=O,inactive: > 76.9 µM
6,CCCNS(=O)(=O)c1ccc(CCC(=O)N2CCCCC2)cc1,inactive: > 76.9 µM
7,Cc1ccc(CNC(=O)C2c3ccccc3C(=O)N(C)C2c2c[nH]c3ccccc23)o1 (centres undefined),inactive: > 76.9 µM
8,Cc1ccc(-c2[nH]nc3c2C(c2ccc(OC(=O)N4CCOCC4)cc2)C(C#N)=C(N)O3)cc1 (centres undefined),inactive: > 76.9 µM
9,O=c1c2cn[nH]c2nc(SCc2ccc3c(c2)OCCO3)n1-c1ccccc1,inactive: > 76.9 µM
10,COc1ccc(C(=O)Nc2ccccc2C(=O)NC(C(=O)NCc2ccco2)C(C)C)cc1 (centres undefined),inactive: > 76.9 µM
11,O=c1c2ccccc2nc(-c2ccccc2)n1CCN1CCOCC1,inactive: > 76.9 µM
12,Cc1ccc(-c2cc(C(F)F)nc(N3CCC(C)CC3)n2)cc1,inactive: > 76.9 µM
13,O=C(NC1CC2CCCC(C1)N2C(=O)NC1CCCCC1)c1ccccc1 (centres undefined),inactive: > 76.9 µM
14,COc1ccc(Br)cc1S(=O)(=O)N1CCOCC1,inactive: > 76.9 µM
15,Cc1cc(Cl)ccc1OCC(=O)N1C(C)CCCC1C (centres undefined),inactive: > 76.9 µM
16,Cn1nnnc1P(=O)(c1ccccc1)c1ccccc1,inactive: > 76.9 µM
17,CCOC(=O)c1c(N)nn(C(=O)C(C)C)c1-c1ccccc1,inactive: > 76.9 µM
18,CC(=O)CC1(C)OC(N)=C(C#N)C1(C#N)C#N (centres undefined),inactive: > 76.9 µM
19,Cc1cc(C)cc(N(CC(=O)NCC2CCCO2)C(=O)CCC(=O)Nc2cc(C)on2)c1 (centres undefined),inactive: > 76.9 µM
20,COc1ccccc1N1CCN(C(=O)C2CCN(S(=O)(=O)N3CCOCC3)CC2)CC1,inactive: > 76.9 µM
